# Assay results as given in EP4603109A1, “ANTIBODY-DRUG CONJUGATE, PREPARATION METHOD THEREFOR, AND USE THEREOF” (priority 2022, dated 2024).
# Read-outs that look alike come from different tables or passages of the source. Marks after values point to notes of the source that are not given here.
# Assays:
# [1] = tested on: human non-small cell lung cancer cell HCC827; conditions: endocytosis, pHrodo, 24 h, Median YL-1H
# CHO-S-rat B7-H3 = CHO-S-rat B7-H3 (Rattus norvegicus, UniProt Q7TPB4); conditions: cell binding, FACS Median PE
# CHO-S-human B7-H3-2Ig = CHO-S-human B7-H3-2Ig (Homo sapiens, UniProt Q5ZPR3); conditions: cell binding, FACS Median PE
# CHO-S-human B7-H3-2Ig, sequence (Q5ZPR3 29-316 isoform Q5ZPR3-2 limits assumed): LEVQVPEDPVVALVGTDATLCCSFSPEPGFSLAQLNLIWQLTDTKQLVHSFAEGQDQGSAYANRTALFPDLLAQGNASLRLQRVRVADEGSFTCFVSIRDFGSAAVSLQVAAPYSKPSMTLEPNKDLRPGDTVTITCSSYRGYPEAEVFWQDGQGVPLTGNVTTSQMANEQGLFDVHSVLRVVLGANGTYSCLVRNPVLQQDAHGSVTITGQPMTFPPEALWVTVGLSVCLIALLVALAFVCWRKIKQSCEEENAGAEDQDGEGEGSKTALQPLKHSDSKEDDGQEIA
# [2] = Repeated dose toxicity test; assay type: in vivo; conditions: cynomolgus monkeys
# [3] = tested on: human breast squamous cell carcinoma cell HCC1806; test: Tumor growth inhibition in subcutaneous HCC1806 mouse CDX model; assay type: in vivo, Balb/cNude mice; conditions: Day 14, 3 mg/kg i.v., 1 dose on Day 0
# [4] = tested on: human gastric cancer cell NCI-N87; conditions: endocytosis, pHrodo, 24 h, Median YL-1H
# [5] = tested on: human non-small cell lung cancer cell HCC827; test: Cell affinity by flow cytometry; conditions: cell binding, FACS Median PE
# [6] = tested on: human mammary squamous cancer cell HCC1806; conditions: cell binding, FACS Median PE
# rat B7-H3-his = target: T1, rat B7-H3-his (Rattus norvegicus, UniProt Q7TPB4); test: Dynamic affinity by ForteBio (BLI); assay type: binding; conditions: Protein A sensor, 1:1 global fitting
# T1 construct: His
# T1 sequence (Q7TPB4 29-316): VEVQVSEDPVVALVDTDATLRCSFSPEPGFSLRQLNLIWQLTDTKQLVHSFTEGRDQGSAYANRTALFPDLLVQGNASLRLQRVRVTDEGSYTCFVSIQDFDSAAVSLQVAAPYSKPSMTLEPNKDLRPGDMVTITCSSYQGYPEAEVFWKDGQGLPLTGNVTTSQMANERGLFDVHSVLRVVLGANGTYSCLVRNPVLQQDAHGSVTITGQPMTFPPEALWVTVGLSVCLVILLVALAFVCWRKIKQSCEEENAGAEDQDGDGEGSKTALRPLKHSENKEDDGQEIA
# [7] = tested on: Human breast squamous carcinoma cell line HCC1806; test: In vivo efficacy of different conjugates of 2#8890 in HCC1806 model; conditions: HCC1806 mouse
# CD32a = target: T2, CD32a (Homo sapiens, UniProt P12318); test: Binding affinity to Fc receptors by ForteBio; conditions: SA sensor, biotinylated receptor, 1:1 fitting
# T2 sequence (P12318 34-317): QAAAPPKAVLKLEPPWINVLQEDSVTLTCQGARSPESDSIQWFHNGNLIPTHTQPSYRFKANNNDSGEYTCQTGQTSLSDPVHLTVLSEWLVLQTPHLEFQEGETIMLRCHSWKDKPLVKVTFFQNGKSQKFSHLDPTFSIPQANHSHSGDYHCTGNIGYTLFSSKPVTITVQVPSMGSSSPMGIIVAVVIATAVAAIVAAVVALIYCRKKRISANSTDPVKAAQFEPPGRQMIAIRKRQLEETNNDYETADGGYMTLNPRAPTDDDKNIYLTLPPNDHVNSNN
# [8] = Hydrophilicity detection (TSKgel Butyl-NPR column); assay type: physicochemical; conditions: (retention time of sample - hydrophilic control)/(hydrophobic control - hydrophilic control); smaller = more hydrophilic
# [9] = tested on: Human gastric cancer cells NCI-N87; test: Efficacy of different ADCs in NCI-N87 model; assay type: in vivo; conditions: NCI-N87 mouse, 5 mg/kg i.v., QW, twice
# [10] = tested on: human colon cancer cell HT29; test: Cell affinity by flow cytometry; conditions: cell binding, FACS Median PE
# [11] = tested on: human gastric cancer cell NCI-N87; conditions: cell binding, FACS Median PE
# [12] = tested on: human mammary squamous carcinoma cell HCC1806; conditions: endocytosis, pHrodo, 24 h, Median YL-1H
# [13] = design: species or system cynomolgus monkeys; conditions: cynomolgus monkey, in vivo, iv, 50 mg/kg
# CHO-S-human B7-H3-4Ig = CHO-S-human B7-H3-4Ig (Homo sapiens, UniProt Q5ZPR3); conditions: cell binding, FACS Median PE
# CHO-S-human B7-H3-4Ig, sequence (Q5ZPR3 29-534): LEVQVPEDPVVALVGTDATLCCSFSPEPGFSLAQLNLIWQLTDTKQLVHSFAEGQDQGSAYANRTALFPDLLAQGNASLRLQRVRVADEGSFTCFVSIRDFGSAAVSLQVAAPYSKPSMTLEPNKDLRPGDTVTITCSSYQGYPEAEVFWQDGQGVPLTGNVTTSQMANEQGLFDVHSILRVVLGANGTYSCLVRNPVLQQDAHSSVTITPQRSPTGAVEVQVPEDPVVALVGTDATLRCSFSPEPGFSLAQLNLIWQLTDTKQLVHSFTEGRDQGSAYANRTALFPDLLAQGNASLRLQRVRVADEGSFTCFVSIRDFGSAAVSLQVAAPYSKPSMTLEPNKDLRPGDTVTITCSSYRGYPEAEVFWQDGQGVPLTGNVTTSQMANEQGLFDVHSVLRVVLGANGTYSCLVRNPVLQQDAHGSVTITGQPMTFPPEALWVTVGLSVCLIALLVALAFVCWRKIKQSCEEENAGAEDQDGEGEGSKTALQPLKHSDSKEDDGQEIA
# [14] = tested on: Human breast squamous carcinoma cell line HCC1806; test: Efficacy of different doses of ADCs in HCC1806 model; assay type: in vivo; conditions: HCC1806 mouse; for TGI (%): VP27
# CHO-S-monkey B7-H3 = conditions: cell binding, FACS Median PE
# [15] = i.v. 30 mg/kg QW x2, then 50 mg/kg QW x2
molecule,measurement,setting,value
ADC 5 (conjugate) heavy: QVQLQESGPGLVQPSGTLSLTCAVSGGSDSSTNWWTWVRQSPGQGLEWIGEISPIGFTSYSPSLRSRVTISVDKSKTQFSLKLSSVTAADTAVYYCARDRLYFAFWGQGTLVTVSSASTKGPSVFPLAPSSKSTSGGTAALGCLVKDYFPEPVTVSWNSGALTSGVHTFPAVLQSSGLYSLSSVVTVPSSSLGTQTYICNVNHKPSNTKVDKKV[human IgG1 Fc with L234A L235A G237A (EU numbers) left out here] light: EIVMTQSPATLSVSPGERATLSCRASQSVSSNLAWYQQKPGQAPRLLIYGASTRATGIPDRFSGSGSGTEFTLTISSLESEDFAVYYCQQYNNWPITFGQGTRLEIKRTVAAPSVFIFPPSDEQLKSGTASVVCLLNNFYPREAKVQWKVDNALQSGNSQESVTEQDSKDSTYSLSSTLTLSKADYEKHKVYACEVTHQGLSSPVTKSFNRGEC,EC50 (ng/ml) HCC827,[1],9.835 ng/mL
same,EC50 (ng/ml) CHOS-rat B7-H3,CHO-S-rat B7-H3,Not bond
same,EC50 (ng/ml) CHOS-B7-H3-2Ig,CHO-S-human B7-H3-2Ig,26.89 ng/mL
same,findings during the recovery period,[2]; after 30 mg/kg QW x2 and 50 mg/kg QW x2,recovery trend
same,findings during the administration period,[2]; [15],"loss of appetite, hair loss, skin pigmentation and weight loss"
same,haematology changes in female monkeys,[2]; [15],"WBC, NEUT, LYM, and MONO were reduced"
same,haematology changes in male monkeys,[2]; [15],"RBC, HGB, and HCT were reduced in male monkeys, and FGB was increased"
same,highest no serious toxicity dose (HNSTD),"[2]; i.v. 30 mg/kg once a week x2, then 50 mg/kg once a week x2",50 mg/kg
same,T/C (%),[3],16.99%
same,TGI (%),[3],96.68%
same,Tumor volume (mm^3) (x±SEM),[3],218.24±57.69 mm^3
same,EC50(ng/ml) NCI-N87,[4],7.984 ng/mL
same,EC50 (ng/ml) HCC827,[5],7.579 ng/mL
same,EC50(ng/ml) HCC1806,[6],3.129 ng/mL
same,Rat B7-H3-his KD (M),rat B7-H3-his,Not bond
same,TGI (%),"[7]; 5 mg/kg i.v. once (DAR8 group), VP52",195.97** %
same,tumors of mice 95 days after a single dose,"[7]; 5 mg/kg i.v. once, 95 days",completely disappeared
same,"VP52(mm^3, mean±SEM)","[7]; tumor volume, 5 mg/kg i.v. once (DAR8 group)",6.10±3.98 mm^3
same,KD (M) CD32a,CD32a,Not bond
same,Hydrophobicity value,[8],1.36
same,TGI (%),[9]; VP42,66.45** %
same,"VP42 (mm^3, mean±SEM)",[9]; tumor volume,532.12±102.51 mm^3
same,EC50 (ng/ml) HT29,[10],2.335 ng/mL
same,EC50(ng/ml) NCI-N87,[11],2.329 ng/mL
same,EC50(ng/ml) HCC1806,[12],10.91 ng/mL
same,CL F obs,[13],347.008 L/h/kg
same,EC50 (ng/ml) CHOS-B7-H3-4Ig,CHO-S-human B7-H3-4Ig,41.48 ng/mL
same,TGI (%),[14]; 0.5 mg/kg i.v. once,37.11%
same,TGI (%),[14]; 5 mg/kg i.v. once,174.17* * %
same,"VP27 (mm^3, mean±SEM)","[14]; tumor volume, 5 mg/kg i.v. once",44.57±7.16 mm^3
same,EC50 (ng/ml) CHOS-monkey B7-H3,CHO-S-monkey B7-H3,31.85 ng/mL
